Data as given in paper PMC4336329 (PLoS ONE, 2015).
Among all 310,000 compounds or so, about 14,000 (4.5%) showed an effect of 50% or more. Effects have a minus sign here. Some of the results follow.

Biological target: human ether-à-go-go-related gene (hERG) potassium channel (human, UniProt Q12809)
Test: primary screen, population patch clamp on CHO cells stably expressing hERG
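Further: peak tail current of the secondary pulse compared with the same well before compound.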

human ether-à-go-go-related gene (hERG) potassium channel, sequence (Q12809 whole entry, looked up): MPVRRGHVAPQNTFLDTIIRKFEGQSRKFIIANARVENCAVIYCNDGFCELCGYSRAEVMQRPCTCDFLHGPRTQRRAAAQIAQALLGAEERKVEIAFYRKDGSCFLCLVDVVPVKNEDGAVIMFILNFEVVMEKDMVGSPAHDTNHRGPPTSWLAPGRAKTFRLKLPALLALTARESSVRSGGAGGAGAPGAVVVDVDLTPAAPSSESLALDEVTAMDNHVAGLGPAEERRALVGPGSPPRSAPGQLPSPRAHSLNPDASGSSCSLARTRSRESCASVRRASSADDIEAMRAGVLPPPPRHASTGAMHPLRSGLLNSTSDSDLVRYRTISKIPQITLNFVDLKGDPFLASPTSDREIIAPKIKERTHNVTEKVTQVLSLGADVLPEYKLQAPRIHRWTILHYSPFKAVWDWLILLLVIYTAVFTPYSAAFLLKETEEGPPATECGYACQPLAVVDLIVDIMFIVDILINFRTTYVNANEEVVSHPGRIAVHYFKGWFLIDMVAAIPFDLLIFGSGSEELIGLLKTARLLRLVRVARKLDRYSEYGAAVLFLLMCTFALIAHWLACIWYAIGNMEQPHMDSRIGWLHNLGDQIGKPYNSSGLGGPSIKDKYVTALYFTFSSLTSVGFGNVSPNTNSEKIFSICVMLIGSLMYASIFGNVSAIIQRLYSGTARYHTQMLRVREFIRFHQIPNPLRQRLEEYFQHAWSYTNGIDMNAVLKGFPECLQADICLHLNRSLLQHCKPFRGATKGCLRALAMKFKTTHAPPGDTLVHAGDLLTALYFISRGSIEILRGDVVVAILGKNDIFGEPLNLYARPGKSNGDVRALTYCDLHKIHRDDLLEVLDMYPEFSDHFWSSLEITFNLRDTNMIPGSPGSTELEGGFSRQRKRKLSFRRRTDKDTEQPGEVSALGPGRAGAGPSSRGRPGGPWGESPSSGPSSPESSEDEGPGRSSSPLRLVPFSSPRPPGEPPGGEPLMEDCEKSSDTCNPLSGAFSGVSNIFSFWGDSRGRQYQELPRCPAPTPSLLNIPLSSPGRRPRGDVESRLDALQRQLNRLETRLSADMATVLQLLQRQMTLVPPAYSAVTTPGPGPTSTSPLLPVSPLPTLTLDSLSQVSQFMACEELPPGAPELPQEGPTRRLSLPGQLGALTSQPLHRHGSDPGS

Structure (SMILES)	hERG current change (%, negative = inhibition) at 10uM
COc1cc2c(C(=O)NCc3ccccn3)cn(CC(C)C)c(=O)c2cc1OC	-3.21%
COCCOc1cc(N)c(Cl)cc1Cl	15.5%
CC(=O)Nc1ccc(S(=O)(=O)Nc2ccc(S(=O)(=O)N3CCCCCC3)cc2)cc1	5.32%
O=S(=O)(c1ccc(Cl)s1)N1CCCc2cccc(O)c21	11.9%
COc1ccc(N2C=C3C(=O)C(C)(OC(=O)CCc4ccccc4)C(=O)C=C3C=C2c2ccc(C#N)cc2)cc1 (stereo not shown)	7.77%
Cc1ccc(NC(=O)CSc2nc(-c3ccco3)cc(C(F)(F)F)n2)cc1C	-3.9%
CCOCCOC(=O)c1ccc(-n2cnc(C)n2)nc1	16.3%
COc1cc(CN2CC(=O)N(c3cccc(Cl)c3C)C2=S)cc(OC)c1OC	8.69%
Cc1sc(NC(=O)CSc2nnc(-c3ccccc3)o2)c(C#N)c1C	8.85%
CCOc1cc(-c2nn3cnnc3s2)cc(OCC)c1OCC	-15.4%
CCCCNCC1C(Oc2ccc(Cl)cc2)C(=O)N1c1ccccc1C.Cl (stereo not shown)	-65.9%
Cc1ccc(C(=O)Nc2cccnc2)cc1Cl	4.54%
CCOc1ccc(NC(=O)CCNS(=O)(=O)c2ccc3c(c2)CC(C)N3C(C)=O)cc1 (stereo not shown)	6.98%
CC1CCCC(NC(=O)COC(=O)c2cccc(NS(=O)(=O)/C=C/c3ccccc3)c2)C1C (stereo not shown)	5.35%
CN(C)S(=O)(=O)c1ccc2[nH]cc(/C=C/c3nc4ccccc4c(=O)n3-c3ccccc3)c2c1	14.6%
Cc1ccc2cc(-c3noc(C4CCCCC4)n3)c(=O)[nH]c2c1	19%
Cc1onc(-c2c(F)cccc2Cl)c1C(=O)OCC(=O)NC(c1ccccc1)c1ccccc1	-13.9%
CN1CCN/C1=C(/C(Cl)=C(Cl)Cl)[N+](=O)[O-]	25.9%
Cc1ccc(CN(C#N)c2nc(C)cc(C)n2)cc1	-4.91%
NS(=O)(=O)c1ccc(NC(=S)NCc2ccccc2Cl)cc1	20.5%
COc1cc(OC)c(C2CC(=O)N3CN(c4ccc(C)cc4)CSC3=C2C#N)cc1OC (stereo not shown)	1.16%
CCN(CC)CCN(C(=O)c1ccc(S(=O)(=O)N2CCCCC2)cc1)c1nc2cc3c(cc2s1)OCO3.Cl	-37.6%

Structure (SMILES)	hERG current change (%, negative = inhibition) at 10uM
CCOc1ccc(S(=O)(=O)Nc2cnc3ccccc3c2)cc1	2.82%
CCC(C(=O)NC1CCCC1)N(C(=O)Cn1nnc(-c2cccs2)n1)c1cnc2ccccc2c1 (stereo not shown)	9.1%
CN(C)c1ccc(C(=S)N2CCN(c3ccc([N+](=O)[O-])cc3)CC2)cc1	-18.7%
CC1=C(C(=O)OCc2ccccc2)C(c2ccccc2OS(=O)(=O)c2ccc([N+](=O)[O-])cc2)NC(=O)N1CCCC(=O)O (stereo not shown)	-49.7%
CC(C)Oc1ccc(S(=O)(=O)N2CCOCC2)cc1NC(=O)C1CCCCC1	-19.6%
COC(=O)C1=CO[C@@H](C)[C@H]2CN3CCc4c([nH]c5ccccc45)[C@@H]3C[C@H]12.Cl	-20.2%
Cc1ccc(NS(=O)(=O)c2ccc(NC(=O)c3cccs3)cc2)c(C)c1	-14.8%
N/C(CSc1nc(-c2ccccc2)c(-c2ccccc2)o1)=N\O	-35.3%
CC(=O)c1ccc(N2CCN(C(=O)c3ccc(C(=O)c4ccccc4)cc3)CC2)cc1	-11.7%
O=C(COc1ccc(Br)cc1)N(CCO)CCO	-1.44%
CCC(=O)NCCc1nc2cc(NC(=O)c3cccc([N+](=O)[O-])c3)ccc2n1C	5.11%
Cc1ccc(C(=O)N2CCN(c3cccc(C)c3C)CC2)cc1S(=O)(=O)N1CCOCC1	-29.8%
CCOC(=O)C1=C(C)Nc2ccccc2N/C1=N\S(=O)(=O)c1cccc(Cl)c1	0.773%
COc1ccc2c(C(=O)CN3CCN(CCO)CC3)c[nH]c2c1	-1.03%
O=C(O)CNc1nc(-c2ccccc2)c2cc([N+](=O)[O-])ccc2n1	5.22%
O=[N+]([O-])c1cc(-c2n[nH]c(-c3ccccc3)n2)cc([N+](=O)[O-])c1	14.5%
O=C(Nc1ccccn1)c1cccs1	-10.4%
CN(C)CCCNC(=O)/C=C/c1ccc2c(c1)OCO2	-10.4%
CCn1c(CC(=O)Nc2ccc(C)c(Cl)c2)nnc1SCc1ccc(Cl)c(Cl)c1	-1.33%
Cc1ccccc1-c1nnc2c3ccccc3c(C)nn12	-6.8%
Cc1ccc(-c2nnc(SCC(=O)N3CCCc4ccccc43)n2N)cc1	-13.8%
